Data reported in PubChem BioAssay AID504466 (National Center for Advancing Translational Sciences (NCATS), 2011).
About 4,200 (1.3%) of roughly 330,000 compounds were called active. The inconclusive results got no clear call from the source; some entries with a clear call stand among them for comparison. Calls come from the whole dose curve; as a rule, active = well fitted activation curve with a large enough effect; inconclusive = small, poorly fitted or top-dose-only effect; inactive = no such curve, though single readings can be large or run the other way. Potencies beside an inconclusive call are fits to weak or partial responses and may not hold up.

experiment: qHTS screen for small molecules that induce genotoxicity in human embryonic kidney (HEK293T) cells expressing luciferase-tagged ELG1; conditions: HEK293T ELG1-luciferase reporter, luminescence, 16 h; series mostly up to 46 µM; activity change, positive = activation: at the top concentration; note: nearly all actives have a fitted effect of over 60% in size; for activity change, positive = activation: % of control where 0% means no effect
Outline: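 Step 1: seed 2,000 HEK293T ELG1-luciferase cells per well. Step 2: add compound or DMSO, incubate 16 hr at 37 °C. Step 3: ONE-Glo, 30 min at room temperature, read luminescence.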
Potency is the fitted concentration of half-maximal effect; tags give direction and shape of the fitted curve.

| SMILES | activity change, positive = activation | Potency |
| --- | --- | --- |
| O=C(COC(=O)C1CCCC1)Nc1ncc(Cl)cc1Cl | inactive: 8.5% |  |
| CC(=O)Nc1nnc(COc2ccccc2)s1 |  | inconclusive: 23.1 µM [activator, partial curve, poor fit] |
| Cc1ccc(COc2cccc(/C=N/NC(=O)c3nnn(-c4nonc4N)c3C)c2)cc1 |  | inconclusive: 8.2 µM [activator, partial curve, poor fit] |
| O=C(CNC(=O)c1ccccc1C(=O)O)c1ccccc1 |  | inconclusive: 9.2 µM [activator, single point] |
| COc1cccc(C(=O)Nc2nc3ccccc3[nH]2)c1 |  | active: 0.366 µM |
| CCC(NC(=O)c1cc(COc2ccc(Cl)cc2OC)on1)c1ccncc1 (stereo not given) |  | inconclusive: 4.11 µM [activator, full curve, poor fit] |
| Cc1ccc(OCc2ccc(Br)cc2)c([N+](=O)[O-])n1 |  | active: 7.3 µM |
| CN(C(=O)COC(=O)c1cc([N+](=O)[O-])ccc1Cl)c1ccccc1 | inactive: 0.671% |  |
| O=C(c1cccc(-c2nnc(-c3ccccc3)o2)c1)N1CCCCC1 |  | inconclusive: 16.4 µM [activator, partial curve] |
| CCn1nnc(NC(=O)c2cc3ccccc3o2)n1 |  | active: 14.6 µM |
| O=C(Nc1nccs1)c1ccc(-c2ccc(F)cc2)o1 |  | inconclusive: 5.17 µM [activator, full curve] |
| CC(=O)Nc1cccc(NC(=O)CSc2ncc(-c3ccc(Cl)cc3)n2Cc2ccco2)c1 | inactive: 4.12% |  |
| Cc1nn(-c2nc3ccccc3[nH]2)c(=O)c2ccccc12 |  | inconclusive: 0.058 µM [activator, partial curve, poor fit] |
| O=C1c2ccccc2NC2(CCCCC2)N1c1ccc(O)cc1 |  | inconclusive: 18.4 µM [activator, partial curve, poor fit] |
| CCNc1oc(COc2cccc(C)c2)nc1C#N |  | inconclusive: 12.6 µM [activator, partial curve, poor fit] |
| Cc1ccc2c(C)c(C(=O)N(Cc3ccc(F)cc3)C3CCS(=O)(=O)C3)oc2c1 (stereo not given) | inactive: -3.76% |  |
| CS(=O)(=O)N1CCN(c2ccccc2NC(=O)c2ccc(-c3ccc(Cl)cc3Cl)o2)CC1 | inactive: -4.97% |  |
| Nc1nn(-c2ccccc2)c(N)c1N=Nc1ccccc1 |  | active: 14.6 µM |
| COc1ccc(/C=N/NC(=O)c2ccc3nc[nH]c3c2)c(OC)c1 | inactive: -0.878% |  |
| Cc1[nH]c2ccccc2c1N=Nc1ccc(F)cc1 | inactive: 0.258% |  |
| O=[N+]([O-])CC(=Nc1ccc(F)cc1)N/N=C\c1oc(O)c2ccccc12 | inactive: 6.86% |  |
| Cc1nn(-c2ccccc2)c(C)c1/C=N/NC(=O)c1cc(C2CC2)[nH]n1 |  | inconclusive: 18.4 µM [activator, partial curve, poor fit] |
| Cn1cccc1/C=C1\Cc2ccccc2C1=O |  | inconclusive: 29.1 µM [activator, single point] |
| CC(C)n1nnc(-c2ccc(OCc3ccccc3F)cc2)n1 |  | inconclusive: 16.4 µM [activator, partial curve] |
| CCc1nc2nc(C)c(NS(=O)(=O)c3ccc(Cl)s3)c(=O)n2[nH]1 | inactive: 0.755% |  |

| SMILES | activity change, positive = activation | Potency |
| --- | --- | --- |
| COc1cccc(-c2noc(CCC(=O)Nc3cccnc3)n2)c1 |  | inconclusive: 18.4 µM [activator, partial curve] |
| O=C(CSC(=S)N1CCSCC1)c1ccccc1 |  | inconclusive: 4.11 µM [activator, partial curve] |
| Cc1ccc(NC(=O)c2sc(N)nc2-c2ccc([N+](=O)[O-])cc2)c(C)c1 |  | inconclusive: 25.9 µM [activator, partial curve, poor fit] |
| CCCC(=O)Nc1sc2c(c1C#N)CCCC2 |  | inconclusive: 18.4 µM [activator, partial curve] |
| Cc1ccc(Nc2nc(CSc3nnc(-c4cccs4)o3)cs2)cc1 |  | inconclusive: 18.4 µM [activator, single point] |
| Cc1cccc(NC(=O)c2cc(-c3cc(C)c(C)cc3O)n[nH]2)c1 |  | inconclusive: 1.83 µM [activator, full curve] |
| CC(=O)c1ccc(NC(=O)c2cccs2)cc1 |  | active: 16.4 µM |
| CCC(=O)N/C(N)=N/c1nc2ccccc2o1 |  | inconclusive: 10.3 µM [activator, partial curve] |
| O=C(COC(=O)c1cc([N+](=O)[O-])ccc1NCCO)c1ccccc1 | inactive: 2.95% |  |
| Cn1cnnc1SCC(=O)c1cc2ccccc2o1 | inactive: 0.594% |  |
| CN(C)c1ccc(NC(=O)Nc2cccc(Cl)c2)cc1 |  | inconclusive: 2.06 µM [activator, partial curve] |
| CCOC(=O)N/N=C\c1ccccc1OC/C=C/c1ccccc1 |  | inconclusive: 7.3 µM [activator, partial curve, poor fit] |
| Cc1ccc(CCN2CC(C(=O)NC3CCCCC3)CC2=O)cc1 (stereo not given) | inactive: 0.212% [at 9.26 µM] |  |
| CCCC(=O)Nc1ccc(NC(=O)c2cc3ccccc3o2)c(OC)c1 | inactive: 18.3% |  |
| COc1cccc(C(=O)Nc2ccc(NC(=O)C3CC3)cn2)c1 |  | inconclusive: 14.6 µM [activator, partial curve] |
| c1ccc(-c2nc(-c3cccnc3)cs2)cc1 |  | inconclusive: 25.9 µM [activator, partial curve, poor fit] |
| Cc1ncoc1C(=O)Nc1nccs1 | inactive: 2.46% |  |
| COC(=O)C1=C(C)NC(C)=C(C(=O)OC)C1c1ccc(N(C)C)cc1 |  | inconclusive: 12.6 µM [activator, partial curve, poor fit] |
| CC(=O)c1ccc(N2CCc3ccccc3C2)c([N+](=O)[O-])c1 |  | inconclusive: 18.3 µM [activator, partial curve, poor fit] |
| COc1ccc(Cl)cc1C(=O)Nc1ccc(N(C)C(C)=O)cc1 |  | inconclusive: 5.17 µM [activator, single point] |
| Cc1cc(S(=O)(=O)NCc2ccccc2)ccc1OCC(=O)NCc1ccncc1 |  | inconclusive: 7.3 µM [activator, partial curve] |
| CCOc1ccc2nc(NC(=O)Cc3cccs3)sc2c1 |  | inconclusive: 11.6 µM [activator, partial curve, poor fit] |
| CCC(=O)Nc1ccc(C(=O)N/N=C/c2ccccc2[N+](=O)[O-])cc1 |  | inconclusive: 25.9 µM [activator, single point] |
| Cc1cccc(C(=O)O)c1NC(=O)Cc1cccc2ccccc12 | inactive: -1.9% |  |
| Cc1ccsc1/C=N/NC(=O)c1ccncc1 | inactive: 0.841% |  |

| SMILES | activity change, positive = activation | Potency |
| --- | --- | --- |
| O=C(Nc1ccc2c(c1)OCCO2)NC1CCCCC1 |  | active: 1.64 µM |
| CN(C)c1cccc(C(=O)NCC(c2ccco2)N(C)C)c1 (stereo not given) |  | inconclusive: 5.62 µM [activator, partial curve, poor fit] |
| CCOc1c(Nc2ccccc2O)c(=O)c1=O | inactive: -0.949% |  |
| COc1ccc(NC(=O)c2ccc(=O)[nH]c2)cc1S(=O)(=O)N1CCCCC1 | inactive: 2.53% |  |
| COc1cc(SC)ccc1C(=O)NNC(=O)c1cc(C)oc1C |  | inconclusive: 2.31 µM [activator, full curve] |
| O=C(CCNc1ccc(Cl)cc1)c1cccs1 |  | inconclusive: 20.6 µM [activator, partial curve, poor fit] |
| O=C(CN1C(=O)NC2(CCCC2)C1=O)OCc1c(F)cccc1Cl | inactive: 2.98% |  |
| NCc1ccc(-c2nc3ccccc3o2)cc1 |  | inconclusive: 8.2 µM [activator, partial curve] |
| Cc1ccccc1CSc1nnc(-c2cccnc2)n1N |  | inconclusive: 20.6 µM [activator, partial curve, poor fit] |
| O=C(c1cc2cc(Cl)ccc2o1)N1CCCCCC1 | inactive: 12.8% |  |
| CN(C)S(=O)(=O)Oc1cccc(C(=O)Nc2ccc(Cl)c(Cl)c2)c1 | inactive: 15.5% |  |
| O=C1C=C(c2ccc(Oc3ccccc3)cc2)C[C@@H](c2ccc(F)cc2)C1 | inactive: -2.86% |  |
| O=C(Nc1cccc(Cn2cccn2)c1)c1cc2c(s1)CCCC2 |  | inconclusive: 3.26 µM [activator, partial curve, poor fit] |
| Cc1ccc(C(=O)N/N=C2\CCc3ccccc32)c(C)c1 |  | active: 2.31 µM |
| CCOC(=O)c1cccc(N/C=C/C(=O)c2ccc(OC)c(OC)c2)c1 |  | inconclusive: 0.92 µM [activator, full curve] |
| CCC1CCCCN1C(=O)CCc1nnc(Cc2cc(OC)ccc2OC)o1 (stereo not given) |  | inconclusive: 16.4 µM [activator, partial curve, poor fit] |
| Cc1cc(C)c2c(N)c(C(=O)c3ccc(Cl)cc3)sc2n1 |  | inconclusive: 29.1 µM [activator, partial curve, poor fit] |
| O=C(N/N=C/c1c[nH]c2ccccc12)c1ccccc1O |  | inconclusive: 18.3 µM [activator, single point] |
| COc1cccc(NC(=O)Nc2ccc(Br)cn2)c1 |  | inconclusive: 10.3 µM [activator, partial curve] |
| C1=CC2CC1CC2CN1CCN(c2ccccc2)CC1 (stereo not given) |  | inconclusive: 18.4 µM [activator, partial curve, poor fit] |
| CCc1ccc(-c2csc(NC(=O)C3=COCCO3)n2)cc1 |  | inconclusive: 13 µM [activator, partial curve, poor fit] |
| CC(=O)Nc1nc2c(C)cc(NC(=O)C3CCCCC3)cc2s1 |  | inconclusive: 16.4 µM [activator, partial curve] |
| COc1ccc(C(=O)NNc2ccccc2)cc1 |  | inconclusive: 20.6 µM [activator, partial curve, poor fit] |
| COc1ccc(NC(=O)c2cnc3sccn3c2=O)cc1 |  | active: 4.11 µM |
| O=C(NC1CCCC1)c1cc(-c2cccc(Cl)c2)on1 |  | active: 18.3 µM |
